Screen size: about 310,000 compounds; about 2,200 (0.71%) showed an effect of 50% or more. Effects have a minus sign here. The list shows a part of the results.
Target: human ether-à-go-go-related gene (hERG) potassium channel (human, UniProt Q12809)
Assay: primary screen, population patch clamp on CHO cells stably expressing hERG

Sequence of human ether-à-go-go-related gene (hERG) potassium channel (Q12809 whole entry, looked up): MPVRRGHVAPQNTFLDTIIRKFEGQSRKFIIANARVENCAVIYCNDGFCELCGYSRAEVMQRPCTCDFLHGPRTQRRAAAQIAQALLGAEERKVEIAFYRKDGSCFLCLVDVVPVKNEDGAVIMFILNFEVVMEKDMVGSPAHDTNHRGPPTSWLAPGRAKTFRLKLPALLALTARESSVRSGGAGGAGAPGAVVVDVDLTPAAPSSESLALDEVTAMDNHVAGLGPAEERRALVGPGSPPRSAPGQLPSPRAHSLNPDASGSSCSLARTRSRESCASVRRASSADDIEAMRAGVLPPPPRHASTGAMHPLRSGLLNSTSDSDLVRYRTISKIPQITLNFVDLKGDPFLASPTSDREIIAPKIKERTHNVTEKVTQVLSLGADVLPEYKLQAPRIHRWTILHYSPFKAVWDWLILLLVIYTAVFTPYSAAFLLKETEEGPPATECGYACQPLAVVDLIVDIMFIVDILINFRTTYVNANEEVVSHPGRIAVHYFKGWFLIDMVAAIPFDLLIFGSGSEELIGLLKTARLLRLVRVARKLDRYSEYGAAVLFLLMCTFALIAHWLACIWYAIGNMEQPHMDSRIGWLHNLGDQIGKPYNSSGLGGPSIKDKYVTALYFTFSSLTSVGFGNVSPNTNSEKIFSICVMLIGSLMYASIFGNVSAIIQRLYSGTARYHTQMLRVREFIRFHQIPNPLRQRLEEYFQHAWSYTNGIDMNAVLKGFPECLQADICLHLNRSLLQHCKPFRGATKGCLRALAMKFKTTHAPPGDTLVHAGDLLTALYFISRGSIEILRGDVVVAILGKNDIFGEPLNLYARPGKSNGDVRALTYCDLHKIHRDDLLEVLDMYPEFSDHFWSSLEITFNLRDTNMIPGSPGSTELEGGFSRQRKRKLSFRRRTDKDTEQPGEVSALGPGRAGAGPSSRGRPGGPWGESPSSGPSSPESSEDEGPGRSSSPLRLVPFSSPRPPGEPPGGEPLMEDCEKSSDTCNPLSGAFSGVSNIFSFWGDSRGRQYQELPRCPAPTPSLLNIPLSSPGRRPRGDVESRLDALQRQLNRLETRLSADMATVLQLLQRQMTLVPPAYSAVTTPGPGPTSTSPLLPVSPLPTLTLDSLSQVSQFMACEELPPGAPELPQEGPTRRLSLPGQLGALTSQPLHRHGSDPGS

SMILES | hERG current change (%, negative = inhibition) at 1uM [%]
Cc1cc(NC(=O)CCC(=O)N(CCC(C)C)C(C(=O)NC2CCCC2)c2ccccc2C)no1 (stereo not shown) | -3.2
CC1=CC(C)(C(Cl)Cl)C(C)=CC1=O (stereo not shown) | 11.8
COc1ccc2cc3cc(C(=O)N4CC(C)CC(C)C4)oc3nc2c1 (stereo not shown) | 14.5
Cc1ccc2cc(CN(Cc3nnnn3C3CCCCC3)CC3CCCO3)c(=O)[nH]c2c1 (stereo not shown) | 4.57
O=C(NC(=S)Nc1ccccc1[N+](=O)[O-])c1ccccc1 | 8.5
COCCNC(=O)c1sc2nc(-c3ccccc3)cn2c1C | 2.35
COc1ccc(Cc2nnc(NC(=O)CS(=O)(=O)c3ccc(C)cc3)s2)cc1OC | 15.8
CCS(=O)(=O)c1ncc(Cl)c(C(=O)Nc2ccc(S(=O)(=O)N(C)c3ccccc3)cc2)n1 | 11.9
CCNc1cc(N2CCN(S(=O)(=O)c3ccc4c(c3)CCCC4)CC2)ccc1[N+](=O)[O-] | -8.75
CCOC(=O)CCNC(=O)N1CCCC(C(=O)c2cccc(Cl)c2)C1 (stereo not shown) | 4.58
O=C(CSC1=NCCS1)Nc1nc2c(s1)CCCC2 | -3.89
O=[N+]([O-])c1cc([N+](=O)[O-])c2cc3ccccc3nc2c1 | 15.6
CCN1CCN(CCCNC(=O)C2CCCN(c3nc4c(C)cc(C)cc4s3)C2)CC1 (stereo not shown) | 1.51
CCOC(=O)c1ccc(OC(=O)CCCCCN=C(N)N)cc1.CS(=O)(=O)O | 1.72
Nc1ccccc1-c1nnc(SCc2ccccc2F)[nH]c1=O | 12.1
O=C(N/N=C/c1cccc(C(F)(F)F)c1)c1ccc(O)cc1 | 10.3
COC(=O)c1cc2occc2n1Cc1cccc(C)c1 | 7.47
CCc1ccc(C(=O)N2CCN(c3ccc(NC(=O)c4ccco4)cc3)CC2)cc1 | -0.252
Cc1ccc(CNC(=O)CCC2CCCN(Cc3c(C)nn(C(C)C)c3C)C2)o1 (stereo not shown) | -7.5
COc1ccc(C(=O)Nc2ccnn2C2CCN(C(=O)c3cccnc3)CC2)cc1 | 16.6
COc1ccc(CCNC(=O)COC(=O)Cn2cnc3ccccc32)cc1OC | 20
Cc1ccc(C(=O)NCc2ccco2)o1 | 21.2

SMILES | hERG current change (%, negative = inhibition) at 1uM [%]
CCCN1C(=O)/C(=C2/C=Cc3ccccc3N2CC)SC1=S | 10.7
COc1ccc(C2/C=C\CN(C(=O)OCc3ccccc3)CC(=O)N2Cc2ccc(F)cc2)cc1 (stereo not shown) | 9.32
COc1ccc(S(=O)(=O)N2CCc3ccccc32)cc1C(=O)NCCc1ccccn1 | 10.1
Cc1nnc2n1N=C(c1ccc(F)cc1F)CS2 | 7.35
CCOC(=O)c1ccccc1NC(=O)COC(=O)c1ccc(C)c(S(=O)(=O)N2CCOCC2)c1 | 1.11
CCCCc1cc(=O)oc2cc(OC(C)C(=O)NCC3CCC(C(=O)O)CC3)c(Cl)cc12 (stereo not shown) | 15.6
O=C(CSc1cccc2cccnc12)Nc1cc(C(=O)O)cc(C(=O)O)c1 | 16.2
Cc1ccc(NC(=O)CSc2nnc(-c3cnccn3)n2Cc2ccco2)cc1C | 0.115
O=C(CCN1C(=O)/C(=C/c2ccccc2Cl)SC1=S)Nc1ccccc1C(=O)O | 14.8
COc1ccc(CNC(=S)Nc2cc(C)cc(C)c2)cc1 | 7.31
O=S(=O)(Nc1cccc(-c2ccc3nncn3n2)c1)c1cccc(F)c1 | -17.3
COc1cccc(/C=N/NC(=O)CN(C)S(=O)(=O)c2ccccc2)c1OC | 6.7
Cc1ccc(C)c(S(=O)(=O)NCc2cccnc2)c1 | 10.3
COC(=O)c1[nH]c2ccccc2c1NC(=O)CN1CCN(Cc2ccc3c(c2)OCO3)CC1 | -70.3
Cc1cc(C)c(NC(=O)NC(=O)C(Cl)(Cl)Cl)c(C)c1 | 20.7
CN1C(=O)Cc2cc(S(=O)(=O)NCc3c(F)cccc3Cl)ccc21 | 18.4
CN1CCN(NC(=O)CN2C(=O)/C(=C/c3ccccc3Cl)SC2=S)CC1 | -3.93
O=C1C=C(c2ccccc2)C(O)(c2ccccc2)C1 (stereo not shown) | 13.1
C/C(=N\OC(=O)Nc1ccccc1)c1cnn(-c2cc(C(F)(F)F)cc(C)n2)c1C | 10.8
CC(=O)c1ccc(N2CCN(S(=O)(=O)c3cccc(S(=O)(=O)N4CCOCC4)c3)CC2)cc1 | 1.36
Cc1oc(C)c2c(=O)ccc3c(c12)OC(N)=C(C#N)C3c1ccccc1 (stereo not shown) | 11

From paper PMC4336329 (PLoS ONE, 2015)
